Test results as given in paper PMC4336329 (PLoS ONE, 2015).
Out of some 310,000 compounds screened, about 14,000 (4.5%) showed an effect of 50% or more. The effect is printed as a negative number. Some of the results follow.

molecular target: human ether-à-go-go-related gene (hERG) potassium channel (human, UniProt Q12809); experiment: primary screen, population patch clamp on CHO cells stably expressing hERG
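Further: peak tail current of the secondary pulse compared with the same well before compound.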

human ether-à-go-go-related gene (hERG) potassium channel, sequence (Q12809 whole entry, looked up): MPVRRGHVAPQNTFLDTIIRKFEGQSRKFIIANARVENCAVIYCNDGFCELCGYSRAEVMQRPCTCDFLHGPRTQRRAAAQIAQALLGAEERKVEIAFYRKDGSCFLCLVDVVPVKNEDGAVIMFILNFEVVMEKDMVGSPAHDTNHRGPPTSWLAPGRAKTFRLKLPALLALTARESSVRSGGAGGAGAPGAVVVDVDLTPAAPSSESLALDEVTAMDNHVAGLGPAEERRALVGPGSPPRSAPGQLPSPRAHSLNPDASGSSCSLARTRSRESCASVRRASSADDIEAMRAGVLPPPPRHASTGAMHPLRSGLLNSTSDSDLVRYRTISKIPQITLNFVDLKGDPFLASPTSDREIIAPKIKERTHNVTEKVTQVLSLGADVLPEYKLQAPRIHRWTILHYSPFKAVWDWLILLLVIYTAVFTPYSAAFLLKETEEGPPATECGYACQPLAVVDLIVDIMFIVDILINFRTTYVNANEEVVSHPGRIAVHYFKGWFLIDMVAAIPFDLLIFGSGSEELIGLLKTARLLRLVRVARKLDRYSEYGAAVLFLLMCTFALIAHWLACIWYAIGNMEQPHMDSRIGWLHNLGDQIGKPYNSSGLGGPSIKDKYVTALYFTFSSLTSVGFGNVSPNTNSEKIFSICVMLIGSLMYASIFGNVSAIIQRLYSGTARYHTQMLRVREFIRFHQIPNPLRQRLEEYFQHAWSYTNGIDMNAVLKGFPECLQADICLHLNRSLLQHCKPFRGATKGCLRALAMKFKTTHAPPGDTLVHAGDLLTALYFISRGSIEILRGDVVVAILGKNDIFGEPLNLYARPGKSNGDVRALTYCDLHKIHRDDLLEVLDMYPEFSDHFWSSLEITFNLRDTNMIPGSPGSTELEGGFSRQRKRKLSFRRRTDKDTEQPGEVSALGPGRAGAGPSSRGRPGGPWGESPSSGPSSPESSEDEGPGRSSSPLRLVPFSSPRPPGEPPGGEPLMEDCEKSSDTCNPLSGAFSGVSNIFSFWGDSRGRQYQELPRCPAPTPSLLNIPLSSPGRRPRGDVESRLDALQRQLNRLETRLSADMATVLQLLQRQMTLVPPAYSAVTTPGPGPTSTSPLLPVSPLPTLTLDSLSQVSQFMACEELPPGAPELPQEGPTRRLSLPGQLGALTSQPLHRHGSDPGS

SMILES | hERG current change (%, negative = inhibition) at 10uM [%]
Cc1ccc(CN2CCN(CCC(C)C)C(CCO)C2)s1 (stereo not drawn) | -29.5
CCOc1ccccc1C(=O)NCCc1cnc[nH]1 | 18.8
Cc1ccc(Cl)cc1NC(=O)COC(=O)CC1CCCCC1 | 12
Cc1nnc(SCC(=O)Nc2ncc(Cl)cc2Cl)n1Cc1ccccc1 | -15.6
COc1ccc(NC(=O)CC2C(=O)N(c3cccc(OC)c3)C(=O)N2C(C)C)cc1 (stereo not drawn) | -9.32
Cc1nnc(SCC(=O)Nc2ccc3c(c2)OCCO3)n1CC1CCCO1 (stereo not drawn) | -3.78
O=C(O)CCCN1C(=O)/C(=C/c2ccc(-c3nc4ccccc4s3)o2)SC1=S | 23
COC(=O)c1cccc(S(=O)(=O)N2CCCCC2)c1 | -0.44
COc1cccc(C2=CC(c3cccc(OC)c3OC(F)F)n3nnnc3N2)c1 (stereo not drawn) | 9.22
CCOCCOC(=O)CCSc1n[nH]c(=O)[nH]c1=O | -1.23
Cc1ccc2c(C)nc(N/C(N)=N/S(=O)(=O)c3ccccc3)nc2c1 | 21.8
Cc1ccc(C(=O)Nc2ccccn2)cc1S(=O)(=O)N1CCOCC1 | -5.72
O=C(c1cnc(-c2ccc(Cl)cc2)s1)c1ccc(Cl)cc1Cl | 5.71
CCCC(=O)Nc1cc(-c2nc3ncccc3o2)ccc1Cl | 10.1
CCC(C)NC(=O)Cn1c(-c2ccccc2)cc(C(C)=O)c1C (stereo not drawn) | 8.5
Cc1cc(-c2ccc(C(C)C)c(S(=O)(=O)N3CCN(c4ccccc4)CC3)c2)on1 | -11.8
COc1ccc(CC(=O)OCC(=O)NCc2ccccc2Cl)cc1OC | 0.24
O=C(c1ccc(S(=O)(=O)Nc2cccc(C(F)(F)F)c2)cc1)N1CCC1 | 7.99
COc1cc2c(cc1OC)C(C)N(S(=O)(=O)c1ccc(C)cc1)CC2 (stereo not drawn) | -15
CCc1nc(SCc2cccnc2)c2c(=O)n(C)c(=O)n(C)c2n1 | -10.7
CCOC(=O)c1c(NC(=O)COC(=O)c2ccc(Cl)nc2)sc(C(=O)N(C)C)c1C | -11.7
Cc1scc2c1N(C(=O)CN1CCN(C)CC1)c1ccccc1NC2=O | 12.7
COc1cc(C=O)ccc1OCCCOc1ccccc1C(=O)O | 11.2

SMILES | hERG current change (%, negative = inhibition) at 10uM [%]
CCOC(=O)C1=C(c2ccccc2)NC(=S)NC1c1ccc(Cl)c([N+](=O)[O-])c1 (stereo not drawn) | 9.64
COc1ccc(N2CCN(C(=O)Nc3ccccc3C)CC2)cc1 | -6
O=C(c1ccc(N2CCCCS2(=O)=O)cc1)N1CCN(c2ccccc2F)CC1 | -8.75
CC1CCN(c2nc3ccc(C(=O)NCCCN4CCCCC4C)cc3s2)CC1 (stereo not drawn) | -59
COc1ccc(S(=O)(=O)NC(C)C)cc1C(=O)N1CCOCC1 | -1.28
CCCCOC(=O)c1ccc(NC(=O)C(CCS(C)(=O)=O)NC(C)=O)cc1 (stereo not drawn) | -22.4
COc1ccc(-c2cc(NCc3ccccn3)n3ncnc3n2)cc1 | -23.5
C#CCNC(=O)C1=C[C@H](C)C[C@H](OCc2ccc(CO)cc2)O1 | 8.34
CC(=O)Oc1ccc(NC(=O)Cc2ccccc2)cc1 | 24.9
CCn1c(/C(C#N)=N/O)nc2ccccc21 | -9.72
CC(O)[C@H]1CNC(=O)C(=O)N1CC(C)(C)C (stereo partly drawn) | -0.215
O=C(N=Nc1c(O)[nH]c2ccc([N+](=O)[O-])cc12)c1ccccc1[N+](=O)[O-] | -6.97
O=C(COc1ccc(/C=N/NC(=O)C(=O)N2CCCCCC2)cc1)Nc1ccccc1Cl | -15.1
O=C(CN(Cc1ccccc1Cl)C(=O)CN1C(=O)CSc2ccccc21)NC1CC1 | -46
CCOc1ccccc1CNn1cnnc1 | 2.62
O=C(N/N=C/c1cc(Br)cs1)c1ccc2c(c1)OCCO2 | 10.2
CNC(=O)c1c[nH]c2ccc(S(=O)(=O)Nc3ccccc3F)cc2c1=O | 20.9
C1=Cc2ccccc2Nc2ccccc21 | 14
O=C(O)c1cc2cc(Oc3ccccc3)ccc2[nH]1 | 9.48
C=CCNC(=S)Nc1ccc(Cl)cc1 | 4.77
CC(C)CC(NC(=O)c1ccccc1)C(=O)OCC(=O)Nc1ccc(S(N)(=O)=O)cc1 (stereo not drawn) | 6.22
CC(=O)N(C)c1ccc(N=Cc2c(O)ccc3ccccc23)cc1 | -20.9
CCCCOc1ccc(C(=O)Nc2ccc(S(=O)(=O)Nc3onc(C)c3C)cc2)cc1 | 19

SMILES | hERG current change (%, negative = inhibition) at 10uM [%]
CCCc1c(O)nc(SCC(=O)NCCc2ccc(OC)c(OC)c2)[nH]c1=O | 7.21
Cc1nnc(SCC(=O)Nc2nnc(-c3ccccc3)o2)s1 | 10.8
Cc1ccccc1CN1CCN(C(=O)c2cccc(F)c2)CC1 | -6.5
O=C(Nc1cccs1)Nc1c(F)cc(F)cc1Br | 19.6
Cc1ccc(-c2c(C(=O)O)c(C(=O)O)c3n2CCC3)cc1 | 23
Nc1ccccc1SCC(=O)N1CCc2ccccc21 | -17
CCc1noc(C)c1C(=O)OCC(=O)N(C)c1c(N)n(Cc2ccccc2)c(=O)[nH]c1=O | -15.5
CN(c1ccccc1C(=O)Nc1ccc(F)c(F)c1)S(C)(=O)=O | 12.6
O=C(COC(=O)CNS(=O)(=O)c1ccc(Br)cc1Cl)NC1CCCC1 | 5.71
Cc1ccnc(NC(=O)c2ccc3c(c2)OCO3)c1 | -0.679
CCC(=O)c1cn(CC(=O)Nc2cccc(C)c2C)c2ccccc12 | -9.48
Nc1nonc1-n1nnc(C(=O)N/N=C/c2cccc(O)c2)c1CN1CCCC1 | 7.84
COc1cc(C(=O)NNC(=O)c2ccco2)cc(OC)c1OC | 22.2
C/C(=N\NC(=O)COc1cccc2ccccc12)c1cccs1 | 8.83
COCCN(CC(=O)NCC1CCCO1)C(=O)CCC(=O)Nc1cc(C)on1 (stereo not drawn) | 14.5
COC(=O)c1c(NC(=O)CC2Sc3ccc(C(F)(F)F)cc3NC2=O)sc(C)c1C (stereo not drawn) | -4.66
Cc1ccnn1Cc1cc(C(=O)O)c2ccccc2n1 | 38.3
CC(Cc1ccccc1)NC(=O)C1(c2ccccc2)CCOCC1 (stereo not drawn) | -4.37
Cn1c(=O)c2c(ncn2CC(=O)N2CCN(c3ccccc3F)CC2)n(C)c1=O | -12.4
Cc1cc(-n2c(SCC(=O)NCc3cccs3)nc3n[nH]c(C)c3c2=N)ccc1Cl | 3.67
O=C(Nc1ccc(N2CCN(C(=O)c3cccs3)CC2)cc1)c1ccc(Br)o1 | -75.8
CNC(=O)/C(C#N)=C/c1ccc(-c2nc3ccccc3s2)o1 | 4.81
Cc1nc2ccc(NC(=O)Cc3ccc4c(c3)OCCO4)cc2s1 | 33.4

SMILES | hERG current change (%, negative = inhibition) at 10uM [%]
O=C(COc1ccccc1O)c1cccs1 | 7.67
CC(C)NC(=O)NS(=O)(=O)c1cnccc1NC1CC2CCC1C2 (stereo not drawn) | 3.42
Cc1ccccc1-n1c(O)c(C=Nc2ccc(N(C)C)cc2)c(=O)[nH]c1=O | -21.9
CSc1cccc(NC(=S)Nc2cc(C)ccc2C)c1 | 3.75
COc1ccc(N2C(=NC(=O)C3CC3)SC3CS(=O)(=O)CC32)cc1Cl (stereo not drawn) | 1.69
CN(C(=O)c1ccc(NC(=O)Cc2cccc(NC(=O)C3CCN(C(=O)C4CCCCC4)CC3)c2)cc1)C1CCCC1 | 9.93
COc1ccc(C(=O)N/C(=C/c2ccco2)C(=O)NCc2ccco2)cc1 | -30.1
Cc1ccc(NC(=O)CSCC(=O)Nc2ccc(S(=O)(=O)N3CCOCC3)cc2)cc1 | 5.39
COCCN(CC(=O)NC1CCCCC1)C(=O)c1csnn1 | 12
O=C(Nc1nc2ccccc2s1)c1ccc([N+](=O)[O-])o1 | 17.1
Cn1c(=O)c2c(O)cc(=O)n(-c3ccccc3)c2n(C)c1=O | 8.41
CCOc1ccc(C(=O)NCC(=O)N2CCCCCCC2)cc1OCC | 1.47
COc1cc(Br)c(S(=O)(=O)Nc2c(C)n(C)n(-c3ccccc3)c2=O)cc1OC | 11.1
O=C(Cn1nc(-c2ccccc2)ccc1=O)N1CCC2(CC1)OCCO2 | -1.12
Cc1[nH][nH]c(=O)c1C(c1ccc(Cl)cc1)c1c(C)[nH][nH]c1=O | 15
Cc1c(NC(=O)CC(=O)Nc2c(C)n(C)n(-c3ccccc3)c2=O)c(=O)n(-c2ccccc2)n1C | 12.2
CCCCN(CC)S(=O)(=O)c1ccc2c(c1)n(C)c(=O)c(=O)n2C | -31.7
O=C(Oc1ccccc1N1C(=O)C2CC=CCC2C1=O)c1ccc(Br)cc1 (stereo not drawn) | -3.07
CCOC(=O)Cn1nnnc1C(CC)N(Cc1cccs1)Cc1cc2cc(C)ccc2[nH]c1=O (stereo not drawn) | -6.3
COc1cc2[nH]c(=S)n(NC(=O)c3ccccc3)c(=O)c2cc1OC | 2.51
N/C(Cc1cccc2ccccc12)=N\OC(=O)c1ccc2c(c1)OCO2 | 9.17
